The campaign covered roughly 52,000 compounds. About 1,700 (3.3%) were called active. Rule as the data show it: active = survival mostly below about 52% (no sharp cut-off); inactive = mostly above about 56%. The list shows a part of the results.
These compounds were tested on Wild type (assay: S. aureus survival, RN4220 and DeltatarO strains – OD600, teichoic acid synthesis inhibitors, primary screen (AID 463173)). Details: S. aureus RN4220 wild type/DeltatarO growth, OD600, 18 h, hits give low values, screened at 18.75 µg/mL (by protocol).

SMILES	survival
COc1ccc(-c2nc(S(=O)(=O)c3ccc(C)cc3)c(N3CCCCC3)o2)cc1	inactive: 63%
Cc1ccc(CNC(=O)CN2C(=O)CC(c3ccc(C)c(C)c3)=Nc3ccccc32)cc1	inactive: 64%
Cc1cc(N(C(=O)c2cnccn2)C(C(=O)NCc2ccccc2)c2cccs2)ccc1-n1cnnn1 (stereo not given)	inactive: 113%
CCCCOC(=O)c1ccc(Nc2ncnc3c2cnn3-c2cccc(C)c2)cc1	inactive: 88%
NS(=O)(=O)c1ccccc1	inactive: 100%
CC(Oc1ccc(Cl)cc1Cl)C(=O)N1CCN(C(=O)c2ccco2)CC1 (stereo not given)	inactive: 123%
COc1cc(S(=O)(=O)Nc2ccccn2)ccc1Cl	inactive: 113%
Cc1cc(C(C)(C)C)oc1C(=O)N(CC(=O)NC1CCCC1)c1ccc(F)cc1	inactive: 114%
Cc1cccc(CN2CCC(CNc3ncnc4onc(-c5ccc(Cl)cc5)c34)CC2)c1	inactive: 82%
COc1ccc(NC(=O)C2CCCN(S(=O)(=O)c3cccc4nonc34)C2)cc1Cl (stereo not given)	inactive: 103%
Clc1cccc(-n2cc(-c3ccccc3)c3c(NC4CCCC4)ncnc32)c1	inactive: 74%
COc1ccccc1NC(=O)CSc1nc2c(oc3ccccc32)c(=O)n1Cc1ccco1	inactive: 70%
Cc1ccc(-c2nnc3c4ccccc4c(C)nn23)cc1NC(=O)c1cccc(Br)c1	inactive: 65%
COc1cccc(N2CCN(c3ncnc4c3c(-c3ccccc3)cn4-c3ccc(F)cc3)CC2)c1	inactive: 83%
CCCCN(CC)C(=O)CCCn1c(=O)c2cccn2c2ccccc21	inactive: 81%
O=C(NCc1cccc(Cl)c1)NCc1noc2ccccc12	inactive: 83%
COc1ccc(CNC(=O)CCNS(=O)(=O)c2ccc3c(c2)CCCC(=O)N3)cc1	inactive: 123%
Cc1ccc(Cn2c(CCNC(=O)C(C)C)nc3ccccc32)cc1	inactive: 81%
Cc1ccc(Cl)cc1N(C)C(=O)C1CCCN(c2ncnc3onc(-c4ccc(F)cc4)c23)C1 (stereo not given)	inactive: 102%
COc1ccc(-c2nc(SCC(=O)NCc3ccccc3Cl)n[nH]2)cc1	inactive: 76%

SMILES	survival
O=C(CNCc1ccccc1F)Nc1ccc(N2CCCC2)cc1	inactive: 123%
CC(C(=O)Nc1ccccc1)N1C(=O)c2ccccc2C1=O (stereo not given)	inactive: 110%
O=C(Cn1nc(-c2ccc(Cl)cc2)ccc1=O)NCCc1ccccc1	inactive: 45%
CCOC(=O)CCc1c(C)nc2c(c(C)nn2-c2ccc(C)cc2)c1C	inactive: 119%
CCC(=O)Nc1cccc(NC(=O)CSc2nnnn2C(C)C)c1	inactive: 112%
CC(C)Cn1c(-c2ccc(Cl)cc2)cnc1SCC(=O)N1CCCC1	inactive: 132%
O=C(C1CCC1)N1CCc2cc(S(=O)(=O)NCCc3ccccc3)ccc21	inactive: 111%
Cc1nn(-c2ccc(N3CCCC3)nn2)c(C)c1CCC(=O)N1CCN(c2ccccc2F)CC1	inactive: 81%
CCCN(Cc1cccs1)C(=O)Nc1cc(C)cc(C)c1	inactive: 107%
CC1CCN(C(=O)c2cc3n(n2)C(C(F)(F)F)CC(c2ccccc2)N3)C(C)C1 (stereo not given)	inactive: 123%
CCN(CC)C(=O)Cn1c(=O)n(-c2ccc(Cl)cc2)c(=O)c2c3c(sc21)CCCCC3	inactive: 98%
Cc1nn(C)c2c1c(-c1ccccc1)cc(=O)n2Cc1ccc(F)cc1Cl	inactive: 69%
O=S1(=O)CCC(NC2CCCCC2)C1 (stereo not given)	inactive: 95%
CCS(=O)(=O)c1nnnn1-c1ccccc1	active: 1%
COc1ccc(NC(=O)CC2C(=O)N(c3ccc(OC)cc3)C(=O)N2Cc2ccc(OC)c(OC)c2)cc1 (stereo not given)	inactive: 127%
CCOc1ccc(N2CC(NC(=O)Cc3cccs3)CC2=O)cc1 (stereo not given)	inactive: 89%
CCOc1ccc(C(c2nnnn2C(C)C)N2CCN(c3cccc(Cl)c3)CC2)cc1 (stereo not given)	inactive: 102%
CCOc1ccc(CN2CCC(C(=O)NCC3CCCO3)CC2)cc1OC (stereo not given)	inactive: 99%
COc1ccc(-c2nc3ccccc3o2)cc1NC(=O)c1cccc2c(Cl)cccc12	inactive: 68%
CCOc1ccc(CCNC(=O)CCn2c(=O)c3cccn3c3ccc(F)cc32)cc1OCC	inactive: 71%

SMILES	survival
CCC(CC)c1nc2ccccc2c(=O)[nH]1	inactive: 102%
CCOc1ccc(NC(=O)CCc2c(C)nc3c4c(C)cc(C)nc4nn3c2C)cc1	inactive: 130%
COCC(=O)Nc1nc(-c2ccccc2)cs1	inactive: 115%
Cc1ccc(C)c(CSc2cn(CC(=O)N3CCCC3)c3ccccc23)c1	inactive: 77%
COc1ccc2cc(-c3nc(-c4ccc(N(C)C)cc4)no3)c(=O)oc2c1	inactive: 99%
CN(Cc1ccccc1)c1ccc2cc(S(=O)(=O)N3CCCCC3)ccc2n1	inactive: 57%
COc1ccc(N2CCN(C(=O)c3ccc4c(c3)CCN4S(=O)(=O)c3ccccc3)CC2)cc1	inactive: 103%
O=C(c1ccccc1)N1CCC(O)(c2cccnc2)CC1	inactive: 110%
COc1cc(NC(=O)CSc2cc(=O)n(C)c3ccccc23)cc(OC)c1OC	inactive: 81%
CC(NCc1ccc2c(c1)n(C)c(=O)n2C)c1ccccc1 (stereo not given)	inactive: 86%
Cc1c(C(=O)N(C)Cc2ccccc2)sc2nc(-c3ccc(F)cc3)cn12	inactive: 97%
COc1cccc(-c2cc(C(=O)NCc3ccccc3)no2)c1	inactive: 85%
Cc1cc(C)n2nc(CNC(=O)c3cccc(N(C)C)c3)nc2n1	inactive: 120%
Cc1ccc(-c2cn3c(n2)sc2cc(C(=O)NC4CCCCCC4)ccc23)cc1	inactive: 113%
COCCCNC(=O)C1CCN(Cc2cc3ccccc3n2Cc2cccc(Cl)c2)CC1	inactive: 72%
Cc1noc2ncnc(NCCc3ccccc3)c12	inactive: 74%
Cc1ccc(NS(=O)(=O)c2ccc3nc(-c4ccccc4)[nH]c3c2)cc1Cl	active: 1%
CCn1cc(C(=O)N(C)c2cc(C)ccc2C)c2cc(OC)c(OC)cc2c1=O	inactive: 149%
O=S(=O)(Nc1nc2n(n1)C(c1ccc(F)cc1)C=C(c1ccc(Cl)cc1)N2)c1ccccc1 (stereo not given)	inactive: 57%
CSc1nn(CC(=O)Nc2ccc(C)cc2C)c(N)c1S(=O)(=O)c1ccc(Cl)cc1	inactive: 70%

Source: PubChem BioAssay AID463173 (ICCB-Longwood Screening Facility, Harvard Medical School, 2010)
